# Data as given in a collection of fitness landscapes (doi:10.1126/science.1257360).
# The list shows a part of the results.
# B1: PhoQ; a variant is named by its letters at X, in order, P23837 (parent)
# chain: MKKLLRLFFPLSLRVRFLLATAAVVLVLSLAYGMVALIGYSVSFDKTTFRLLRGESNLFYTLAKWENNKLHVELPENIDKQSPTMTLIYDENGQLLWAQRDVPWLMKMIQPDWLKSNGFHEIEADVNDTSLLLSGDHSIQQQLQEVREDDDDAEMTHSVAVNVYPATSRMPKLTIVVVDTIPVELKSSYMVWSWFIYVLSANLLLVIPLLWVAAWWSLRPIEALAKEVRELEEHNRELLNPATTRELTSLVRNLNRLLKSERERYDKYRTTLTDLTHSLKTPLXXLQXXLRSLRSEKMSVSDAEPVMLEQISRISQQIGYYLHRASMRGGTLLSRELHPVAPLLDNLTSALNKVYQRKGVNISLDISPEISFVGEQNDFVEVMGNVLDNACKYCLEFVEISARQTDEHLYIVVEDDGPGIPLSKREVIFDRGQRVDTLRPGQGVGLAVAREITEQYEGKIVAGESMLGGARMEVIFGRQHSAPKDE
# Variants of: B1
# Assay: enrichment ratio after two sorts for PhoP signalling (ratio (wild type AVST 3.29)); higher = more functional
# Conditions: with PhoP (E. coli)
row,Variant,enrichment ratio
1,FVVE,≤ 0.25
2,GCPP,≤ 0.25
3,LIAM,≤ 0.25
4,RERC,≤ 0.25
5,SWYG,≤ 0.25
6,VAMT,≤ 0.25
7,KFYA,≤ 0.25
8,FDAV,≤ 0.25
9,VNSW,≤ 0.25
10,RRSW,≤ 0.25
11,VQGD,≤ 0.25
12,PFMH,≤ 0.25
13,TLIF,≤ 0.25
14,VTTY,≤ 0.25
15,ITSA,≤ 0.25
16,QMEL,≤ 0.25
17,ELCY,≤ 0.25
18,VSWD,≤ 0.25
19,MFYD,≤ 0.25
20,FEDI,≤ 0.25
21,MHTK,≤ 0.25
22,EYYA,≤ 0.25
23,EQKV,≤ 0.25
24,RTAA,≤ 0.25
25,MKWH,≤ 0.25
26,MTAM,6.57

row,Variant,enrichment ratio
1,VRIF,≤ 0.25
2,SNTY,6.94
3,DADL,≤ 0.25
4,IHIK,≤ 0.25
5,ILWL,≤ 0.25
6,IVGR,≤ 0.25
7,YMKM,≤ 0.25
8,YPEG,≤ 0.25
9,YGNK,≤ 0.25
10,FKHS,≤ 0.25
11,ESYT,≤ 0.25
12,NYQM,≤ 0.25
13,PCCW,≤ 0.25
14,EARI,≤ 0.25
15,TCAR,5.3
16,VYHL,≤ 0.25
17,WYGQ,≤ 0.25
18,IVAV,≤ 0.25
19,PFSK,≤ 0.25
20,IIWC,≤ 0.25
21,AEPA,≤ 0.25
22,HILS,≤ 0.25
23,FCWD,≤ 0.25
24,HGFS,≤ 0.25
25,SECV,24.5
26,RDPF,≤ 0.25

row,Variant,enrichment ratio
1,KTRQ,≤ 0.25
2,TMNW,≤ 0.25
3,MDFW,≤ 0.25
4,SYSW,≤ 0.25
5,EGIA,≤ 0.25
6,RQSE,≤ 0.25
7,NRSN,≤ 0.25
8,WYRA,≤ 0.25
9,IHHG,≤ 0.25
10,NSCF,≤ 0.25
11,QCWP,≤ 0.25
12,NECL,≤ 0.25
13,WCII,≤ 0.25
14,EFQC,≤ 0.25
15,SGWQ,≤ 0.25
16,PPQL,≤ 0.25
17,KCRI,≤ 0.25
18,KSKT,≤ 0.25
19,ICSW,≤ 0.25
20,RECV,≤ 0.25
21,IMSQ,≤ 0.25
22,HQGD,≤ 0.25
23,RKYQ,≤ 0.25
24,VFRY,≤ 0.25
25,KGQE,≤ 0.25
26,LMIH,≤ 0.25

row,Variant,enrichment ratio
1,TQQN,14.8
2,YNNW,≤ 0.25
3,ISVY,≤ 0.25
4,ATDV,≤ 0.25
5,SPDM,≤ 0.25
6,GNQH,≤ 0.25
7,ALHI,≤ 0.25
8,LMIS,≤ 0.25
9,QLVN,≤ 0.25
10,SEPK,≤ 0.25
11,MCML,17.5
12,NYPT,≤ 0.25
13,SEMR,5.37
14,DGMP,≤ 0.25
15,NSYY,≤ 0.25
16,PEVG,≤ 0.25
17,PEVC,≤ 0.25
18,CCYF,≤ 0.25
19,HSNV,≤ 0.25
20,WGCA,≤ 0.25
21,ALCV,6.63
22,FGQF,≤ 0.25
23,HDHN,≤ 0.25
24,KSFL,≤ 0.25
25,HQWP,≤ 0.25
26,TELC,11.4

row,Variant,enrichment ratio
1,QDCW,≤ 0.25
2,PNCN,≤ 0.25
3,EYIM,≤ 0.25
4,WPCG,≤ 0.25
5,GKKS,≤ 0.25
6,WNAV,≤ 0.25
7,LFCP,≤ 0.25
8,LACC,≤ 0.25
9,ATNC,≤ 0.25
10,DNIN,≤ 0.25
11,QNNR,≤ 0.25
12,SEPD,≤ 0.25
13,SMEA,≤ 0.25
14,PTWY,≤ 0.25
15,QMRV,≤ 0.25
16,NQKD,≤ 0.25
17,RTQS,0.421
18,SWTY,≤ 0.25
19,PWGI,≤ 0.25
20,YPAM,≤ 0.25
21,DEPM,≤ 0.25
22,HDMY,≤ 0.25
23,KCYM,≤ 0.25
24,SQAY,11.2
25,VTCR,≤ 0.25
26,LTCG,≤ 0.25

row,Variant,enrichment ratio
1,IKRL,≤ 0.25
2,QMTG,≤ 0.25
3,ITHG,≤ 0.25
4,SFRT,≤ 0.25
5,DDAY,≤ 0.25
6,IDVT,≤ 0.25
7,LRLE,≤ 0.25
8,GTAP,≤ 0.25
9,FVAW,≤ 0.25
10,WPWV,≤ 0.25
11,GCWL,≤ 0.25
12,DALY,≤ 0.25
13,WKEA,≤ 0.25
14,RVAV,≤ 0.25
15,YRAF,≤ 0.25
16,QNLN,≤ 0.25
17,KVSK,≤ 0.25
18,PHVY,≤ 0.25
19,KESP,≤ 0.25
20,MFLC,≤ 0.25
21,VSNS,≤ 0.25
22,PNLV,≤ 0.25
23,QPNL,≤ 0.25
